Measurements reported in paper PMC10668032.
The list shows a part of the results. At the low end of the ranking the order means little.

Target: SIX1-Q177R homeodomain (UniProt Q15475)
Assay: universal protein binding microarray
Details: Universal all-10-mer PBM (8x60K, AMADID 030236), 300 nM GST-tagged protein, Alexa Fluor 488 anti-GST; buffer, salt, pH and temperature not stated; high values mean tight binding; most listed sequences are background and not binding sites; double strand, one strand shown

| Sequence | binding signal [E-score] |
| --- | --- |
| AACCTGCC | 0.146 |
| ATGGCCGA | 0.155 |
| AAACTACG | -0.0588 |
| CCCACTCG | 0.0636 |
| ACGCTGAT | 0.193 |
| GTAGCTAA | -0.106 |
| GTAGGCAA | -0.225 |
| CTGCTGAA | -0.0686 |
| AGGTGCAC | 0.264 |
| ATATGCCG | -0.0524 |
| AGGCGACC | 0.00768 |
| GGTAGGGA | -0.0239 |
| ACCAAACA | 0.244 |
| AGCACTCG | 0.00476 |
| AGTACCAC | 0.00205 |
| GGCACGAA | 0.00376 |
| GTACCGCA | 0.128 |
| AGCTGCAT | -0.383 |
| GAGAAGAA | -0.199 |
| GATATCAA | -0.174 |
| AAAACCCG | 0.102 |
| CACCAATC | 0.287 |
| GGACTATA | -0.163 |
| AATAGCTG | -0.186 |
| CATGACCA | -0.0632 |

| Sequence | binding signal [E-score] |
| --- | --- |
| ACTCGCTG | -0.067 |
| CGAAATAC | -0.0216 |
| AGGGAGAA | -0.173 |
| AGTCGCGG | -0.004 |
| AGTACATA | 0.0251 |
| AAAGCTCA | -0.25 |
| ACGGGACC | -0.0478 |
| CAGGGTAC | 0.162 |
| GGTAATCA | -0.0284 |
| AGCCTCAC | -0.082 |
| ATAAGCGA | -0.0276 |
| GAACCCCA | 0.187 |
| ACCATAGA | 0.04 |
| GCCGTGTA | 0.419 |
| CGAGCAAC | -0.0501 |
| CTGGTGCC | 0.122 |
| TGAAGTAA | -0.127 |
| AATTCTTA | -0.119 |
| CCGGGCTA | 0.116 |
| AACGCGCT | -0.125 |
| ACGCATAA | 0.0551 |
| CAACGTGG | -0.119 |
| TGTCGACA | 0.25 |
| ACATAAGG | -0.0204 |
| CCTGACAG | -0.0476 |

| Sequence | binding signal [E-score] |
| --- | --- |
| CCTTGCGC | -0.169 |
| AAAATGCG | -0.102 |
| GGATCTTA | -0.0167 |
| ATAGAGCC | -0.2 |
| AACGGTTA | -0.126 |
| GAGAGTTA | -0.0602 |
| TAGTCAGA | -0.27 |
| AGATGGCG | -0.155 |
| ATCGACTA | -0.189 |
| ATCGGCGC | 0.014 |
| CGACCTTA | -0.0522 |
| GGGACCTA | 0.0105 |
| CTCTACTA | 0.0963 |
| ATAAGTCA | -0.268 |
| ATTTAACA | 0.0314 |
| ACGGCGCA | -0.0273 |
| CTAAGACA | 0.223 |
| CCAGAATC | -0.00405 |
| CCTTTCCG | 0.139 |
| CAGGGTCC | -0.0302 |
| AAAGTCAC | -0.181 |
| CTAGGCAC | -0.0297 |
| ATCTGCGG | -0.227 |
| AGCGCATG | -0.264 |
| AGCCAGCG | -0.138 |

| Sequence | binding signal [E-score] |
| --- | --- |
| CGGACCGC | -0.0539 |
| AACAGAGC | -0.278 |
| CCCCCTTA | 0.145 |
| CTCTAGAA | -0.223 |
| AGGTGCTA | 0.0757 |
| ACTATCAC | -0.111 |
| CTCCCTGA | 0.0365 |
| CTCCGACC | 0.137 |
| CAGTACCG | 0.185 |
| TCTAATCA | -0.036 |
| ATGGGAAC | 0.0188 |
| ACAGCAGA | -0.229 |
| GGCTGGAA | -0.0955 |
| ATCTGCAA | -0.141 |
| AAAAACGG | -0.00928 |
| TGACCACA | -0.175 |
| GTATAAAA | -0.00201 |
| AAATACTA | -0.104 |
| AAGAGTGC | -0.0999 |
| GGGGTTGA | 0.2 |
| TAAACGAA | -0.25 |
| ATGGCATA | -0.336 |
| CACGCGGC | 0.137 |
| CTCTATCA | -0.179 |
| CTCGGAGA | -0.0963 |

| Sequence | binding signal [E-score] |
| --- | --- |
| TCACCCCA | 0.184 |
| CTGCGCTA | -0.033 |
| CTGACCAA | 0.0224 |
| GGTACGTA | 0.0836 |
| CTATGAAG | -0.0782 |
| AACAATCC | -0.104 |
| AGTTCACA | 0.0771 |
| CGTAGAGC | -0.0705 |
| AGTTTGCG | -0.0696 |
| GATAGATA | -0.109 |
| CGTCGATA | -0.0333 |
| ATGTTCCA | -0.209 |
| CTGGTTTA | -0.0205 |
| GGGCTCCA | -0.144 |
| GAGAAATA | -0.115 |
| AAAAACGA | -0.0811 |
| AAATCGGA | -0.218 |
| AGTTTGAG | -0.0463 |
| ATATCACA | 0.126 |
| ACAGGTCT | -0.196 |
| CGCGGTGC | 0.21 |
| AATCACAT | -0.116 |
| TCACCTCA | -0.0478 |
| GTGGCAAA | -0.042 |
| CAAAGCCG | -0.114 |

| Sequence | binding signal [E-score] |
| --- | --- |
| GCGCACCA | 0.136 |
| CGCCATCA | -0.135 |
| AGTGGCTA | -0.122 |
| CAAGCGGC | -0.11 |
| CTTTCTAA | -0.136 |
| AACCTTCC | -0.0229 |
| AATCTTCC | -0.222 |
| TCGGAGAA | 0.0697 |
| GCCTGTGA | -0.0117 |
| ACCAACAA | -0.0328 |
| TCGAGGCA | -0.176 |
| TAGCTCAA | 0.0432 |
| AGCTAAAG | -0.154 |
| ACAGTTGC | -0.276 |
| CGGGGCGC | 0.00579 |
| CATATGCG | 0.0479 |
| AAGGGCTC | -0.228 |
| CAGAAGAC | -0.126 |
| GATACAGC | -0.133 |
| GAATTGGA | 0.128 |
| GCGCATCC | -0.0903 |
| GCGTATCA | 0.0725 |
| GACAAGGC | -0.0622 |
| ATATCAGG | -0.0998 |
| AAAATTAC | -0.0111 |

| Sequence | binding signal [E-score] |
| --- | --- |
| CATTAGCG | -0.172 |
| ATCCCTCG | 0.142 |
| AAGTTTCC | -0.256 |
| CGACGTTA | -0.134 |
| CCATTTCC | -0.00773 |
| AAAGGGAG | 0.193 |
| CACCTAGC | 0.168 |
| CATGCTGG | 0.0148 |
| GTCGGGCA | -0.0379 |
| ATTAATTA | -0.179 |
| AATGCTTC | -0.201 |
| CCCATCAC | 0.129 |
| ACTCACAA | -0.0889 |
| GAGTTGGC | 0.00784 |
| CCGAGTTA | -0.0155 |
| CAAAAGTA | -0.147 |
| AGTGTAGA | 0.369 |
| ACGTCGAT | -0.0351 |
| AATGACCT | -0.00226 |
| ACGCTAAC | 0.136 |
| CCGGCCGC | 0.0732 |
| CCTTCCTC | -0.0894 |
